Assay results reported in paper PMC4336329 (PLoS ONE, 2015).
Out of some 310,000 compounds screened, about 2,200 (0.71%) showed an effect of 50% or more. Effects have a minus sign here. The list shows a part of the results.

Target: human ether-à-go-go-related gene (hERG) potassium channel (human, UniProt Q12809)
Assay: primary screen, population patch clamp on CHO cells stably expressing hERG

Chain of human ether-à-go-go-related gene (hERG) potassium channel (Q12809 whole entry, looked up): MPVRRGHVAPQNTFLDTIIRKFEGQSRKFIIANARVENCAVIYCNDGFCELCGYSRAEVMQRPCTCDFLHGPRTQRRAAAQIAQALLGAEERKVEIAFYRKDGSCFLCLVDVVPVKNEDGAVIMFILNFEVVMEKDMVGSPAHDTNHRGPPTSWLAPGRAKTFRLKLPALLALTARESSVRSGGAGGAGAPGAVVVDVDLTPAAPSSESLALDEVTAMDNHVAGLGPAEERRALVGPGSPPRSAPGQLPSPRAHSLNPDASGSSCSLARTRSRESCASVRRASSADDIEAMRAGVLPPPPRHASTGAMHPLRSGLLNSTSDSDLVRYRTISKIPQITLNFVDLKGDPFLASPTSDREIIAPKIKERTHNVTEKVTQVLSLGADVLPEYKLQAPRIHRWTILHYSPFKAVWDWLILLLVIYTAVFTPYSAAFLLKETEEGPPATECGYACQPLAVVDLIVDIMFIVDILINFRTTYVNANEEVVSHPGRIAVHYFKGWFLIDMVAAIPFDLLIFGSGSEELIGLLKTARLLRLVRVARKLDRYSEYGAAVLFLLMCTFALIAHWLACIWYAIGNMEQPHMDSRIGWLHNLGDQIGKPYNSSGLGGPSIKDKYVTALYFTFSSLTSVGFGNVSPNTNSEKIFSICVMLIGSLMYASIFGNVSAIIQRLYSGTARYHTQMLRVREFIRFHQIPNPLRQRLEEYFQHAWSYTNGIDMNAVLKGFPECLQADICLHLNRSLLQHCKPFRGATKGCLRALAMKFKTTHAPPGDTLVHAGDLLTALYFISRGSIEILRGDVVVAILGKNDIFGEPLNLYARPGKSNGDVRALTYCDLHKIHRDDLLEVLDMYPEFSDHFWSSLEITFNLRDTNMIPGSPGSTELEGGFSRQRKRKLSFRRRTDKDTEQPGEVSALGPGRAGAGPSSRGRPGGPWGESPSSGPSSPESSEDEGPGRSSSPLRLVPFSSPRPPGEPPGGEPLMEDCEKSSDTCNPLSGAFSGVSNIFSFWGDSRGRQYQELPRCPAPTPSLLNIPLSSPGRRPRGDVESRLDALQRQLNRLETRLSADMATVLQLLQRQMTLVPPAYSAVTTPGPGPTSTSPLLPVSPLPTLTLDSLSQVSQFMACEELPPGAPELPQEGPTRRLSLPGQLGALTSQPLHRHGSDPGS

SMILES	hERG current change (%, negative = inhibition) at 1uM
Cc1ccsc1/C=C/C1=NCCCN1C.O=C(O)C(O)C(O)C(=O)O	12.9%
O=C(NN1CCOCC1)c1cc(-c2ccccc2)nc2ccccc12	-1.69%
CCOC(=O)C1(Cc2cccc(OC)c2)CCN(Cc2ccc(OC)c(O)c2)CC1	-16.9%
COc1cc(/C=C2/NC(=O)N(Cc3ccccc3F)C2=O)cc(OC)c1OC	14.2%
O=C1C2C3C=CC(C4CC34)C2C(=O)N1c1cc(Cl)ccn1 (centres unmarked)	11.3%
CCOC(=O)N1CCN(C(=O)c2ccccc2NC(=O)COc2ccccc2C)CC1	-1.41%
O=C(Cc1ccccc1)NCC(=O)OCC(=O)c1ccc(OC(=O)c2ccccc2)cc1	6.4%
Cc1ccccc1NC(=S)Nc1ccc(Br)cc1	-1.92%
O=[N+]([O-])c1ccc(OC/C=C2\Oc3ccc([N+](=O)[O-])cc3C2N2CCOCC2)cc1 (centres unmarked)	-32.2%
CCOc1ccc(CCNC(=O)CSc2cc(=O)n(CC)c3ccccc23)cc1OCC	6.02%
COC(=O)c1ccc(-c2ccc(OC)c([C@H]3[C@H]4C=CC[C@@H](C)[C@@H]4C(=O)N3Cc3ccccc3)c2)cc1	18.5%
O=C1CCC/C(=N\NC(=O)c2ccc(NS(=O)(=O)c3ccc(Br)cc3)cc2)C1	5.71%
O=C(Nc1nsc(-c2ccccc2)n1)c1cccs1	-0.383%
CC(C)Oc1ccc(OCCn2c(S(=O)(=O)O)nc3c(N)ncnc32)cc1	15.3%
O=S(=O)(c1cccc(-c2nnc(SCc3nc4ccccc4s3)o2)c1)N1CCOCC1	-2.26%
O=C(NCCn1cc(SCc2ccccc2F)c2ccccc21)c1c(F)cccc1F	13.7%
CC(C)OC(=O)CSc1nc(Cc2ccccc2)nc2ccccc12	11.5%
Cc1cccc2c(=O)c(Br)c(C)n(Cc3ccccc3)c12	17%
Cc1c(Cl)cccc1NC(=O)CSC(N)=O	13.1%
COC(=O)C1=C(c2ccc(F)cc2F)C[C@@H]2CC[C@H]1N2C(=O)NCCNC(C)=O	16.3%
O=C(CCCn1c(=S)[nH]c2cc3c(cc2c1=O)OCO3)N1CCN(c2ccc(F)cc2)CC1	2.68%
Cc1cccc(Oc2coc3cc(O)ccc3c2=O)c1	5.43%

SMILES	hERG current change (%, negative = inhibition) at 1uM
Cc1cccc(N2C(=O)/C(=C/c3ccc(CN(CCC#N)S(C)(=O)=O)o3)C(=O)NC2=S)c1	7.33%
COc1cc(C(=O)Nn2c(CC(C)C)nc3ccccc3c2=O)cc(OC)c1OC	11.4%
COc1ccccc1C(=O)COC(=O)c1c(-c2ccccc2)noc1C	7.08%
Cc1cc(C)n(CC(C)NCc2cn[nH]c2-c2ccc(C)c(C)c2)n1 (centres unmarked)	-7.72%
C#CCN1C(=O)C(O)(CC(=O)c2ccc3c(c2)OCCO3)c2ccccc21 (centres unmarked)	15.6%
CC(C)c1nnc(NC(=O)CCC(=O)N2CCC(Cc3ccccc3)CC2)s1	12.5%
CCOc1cc(OCC)nc(S(C)(=O)=O)n1	-0.936%
Cl.c1ccc2c(c1)N1CCCN=C1N2CCN1CCCCC1	-26.2%
Cc1cc(=O)oc2cc(OCC(O)CN3CCc4ccccc4C3)ccc12 (centres unmarked)	-14.7%
Cc1cc2cc(CNC(=O)C3CCCC3)ccc2n1C	12.2%
COc1ccc(C2CC(c3cccs3)n3nc(N)nc3N2)cc1 (centres unmarked)	-15.2%
Cc1cc(C(=O)Nc2cccc(-c3ccc(N4CCOCC4)nn3)c2)ccc1[N+](=O)[O-]	10.7%
CCOc1cc(CNc2ncc(-c3ccc(OC)cc3)n2C)ccc1O.O=C(O)C(=O)O	-4.24%
O=S(=O)(NCC1CCCO1)c1ccc(Cl)nc1 (centres unmarked)	9.23%
O=S(=O)(c1cccc2nsnc12)N1CCN(C/C=C\c2ccccc2)CC1	-0.838%
CCOC(=O)C1(CCOc2ccccc2)CCN(Cc2ccc(OCCO)cc2)CC1	-85.1%
O=S(=O)(c1cccc2nsnc12)N1CCN(C/C=C/c2ccccc2)CC1	-14.8%
CCOc1cc(/C=N/NC(=O)c2ccc3c(c2)OCCO3)cc(Br)c1O	7.91%
CC1=C(C)CC(C(=O)N2CCN(Cc3ccc4c(c3)OCO4)CC2)C(C(=O)O)C1 (centres unmarked)	16.5%
C(=N\Nc1nc(Nc2ccccc2)nc(N2CCOCC2)n1)/c1c[nH]c2ccccc12	2.26%
Cc1ccc(CNC(=O)c2ccc(CNS(=O)(=O)c3ccc4c(c3)C(C)(C)C(=O)N4C)cc2)o1	-1%
C/C(=N/NC(=O)c1ccoc1C)C12CC3CC(CC(C3)C1)C2	12.6%

SMILES	hERG current change (%, negative = inhibition) at 1uM
O=C(CCl)Nc1nccs1	8.92%
Cc1ccc(N2C(=O)CC(NCC3CCCO3)C2=O)cc1 (centres unmarked)	25.5%
CC1=C(/C=C/c2ccccc2)CCN(C)C1.Cl	0.456%
CC(C)NS(=O)(=O)c1ccc(OCC(=O)NCc2cccnc2)cc1	-5.98%
Cl.NCC1CCC(C(=O)Oc2ccc(CCC(=O)O)cc2)CC1 (centres unmarked)	16%
Cc1cc(C)cc(NC(=O)c2ccccc2NC(=O)CCC(=O)O)c1	7.41%
COc1cc([N+](=O)[O-])ccc1NC(=O)CC1SC(=Nc2ccc(F)cc2)N(CCC2=CCCCC2)C1=O (centres unmarked)	3.47%
Nc1nc(N)c2nc(-c3ccccc3)c(N)nc2n1	-0.772%
Cc1ccccc1S(=O)(=O)NCC1CCCO1 (centres unmarked)	13.5%
C=CCNC(=O)/C(C#N)=C/c1ccccc1Cl	17%
c1ccc(-n2nnnc2Oc2ccc(-c3nnco3)cc2)cc1	-2.51%
CCOc1ccc(Cn2nnc(C(=O)Nc3cc(C)cc(C)c3)c2N)cc1	9.04%
Cc1ccc2[nH]c(C(=O)NCCN3CCCC3)cc2c1.Cl	11.2%
O=C(NCc1ccco1)c1ccc(NS(=O)(=O)c2cccc(F)c2)cc1	14.4%
CN(CCNC(=O)C1CC(=O)N(C2CCCC2)C1)Cc1ccccc1 (centres unmarked)	2.28%
COc1ccc(C(O)c2nc3ccccc3s2)cc1 (centres unmarked)	13.7%
Cc1ccc([C@@H]2[C@@H]3C(=O)N(C)C(=O)[C@@H]3[C@@H]3C(=O)Nc4ccccc4C(=O)N23)cc1	10.1%
Cc1ccc(CNC(=O)c2ccc(N3CCC4(CC3)CC(c3cccc(Br)c3)=NO4)c(NC(=O)c3cccc(C)c3)c2)cc1	8.49%
Cc1sc2nc(C(C)C)nc(SCC(=O)N3c4ccccc4CC3C)c2c1C (centres unmarked)	15.4%
Nc1c(N(Cc2ccccc2)C(=O)CCc2ccccc2)c(=O)[nH]c(=O)n1Cc1ccccc1	4.72%
COc1cccc(-c2cc(C(F)(F)F)nc(NCc3ccco3)n2)c1	14.3%
CCOC(=O)C1=C(N)OC2=C(C(=O)CC(C)(C)C2)C1c1ccc(CC)s1 (centres unmarked)	11.2%

SMILES	hERG current change (%, negative = inhibition) at 1uM
O=c1[nH]c(SCCN2CCOCC2)nc(O)c1-c1ccccc1	14%
COC(=O)C1=C(O)/C(=C/c2cccc(OC)c2O)N=C1C	24.1%
O=C(CNc1ccccc1C(=O)O)c1ccccc1	18.2%
Cc1cc(C(F)(F)Cl)n2ncc(-c3ccccn3)c2n1	13.1%
O=C(CO)C(O)C(O)C(O)CO (centres unmarked)	12.7%
CC(=O)Nc1ccc(NC(=O)C2CCN(c3c(Cc4ccccc4)c(C)nc4ncnn34)CC2)cc1	7.31%
CC1CCCC(NC(=O)CN(C)S(=O)(=O)c2cccc3cccnc23)C1C (centres unmarked)	0.895%
CCOc1ccc2oc(C(=O)N(CC)CC(=O)Nc3ccc(NC(C)=O)cc3)c(C)c2c1	-4.7%
O=C(c1cc(F)c(F)cc1Cl)N1CCN(c2ccc([N+](=O)[O-])c3ncccc23)CC1	-53.6%
N#C/C(=C\c1ccc(O)c(O)c1)C(=O)NCc1ccccc1	-5.15%
Cc1ccc(CSc2nn3c(=O)c(C)nnc3s2)cc1	-10.7%
Cc1ccc(O)c(-c2cc3ccccc3[nH]2)c1	3.37%
COc1cc(NC(=O)C2=CC(c3cccs3)=NS(=O)(=O)N2C)cc(OC)c1OC	1.67%
CCOC(=O)c1c(-c2ccc(C)cc2)csc1NC1=NS(=O)(=O)c2ccccc21	7.83%
CCN(CC)CCCN=Cc1c(O)n(-c2ccc(C)cc2)c(=O)c2ccccc12	15.2%
O=C(NCC1CCCO1)c1cnn2c(C(F)F)cc(C3CC3)nc12 (centres unmarked)	8.03%
COc1ccc(OCC(=O)O/N=C(\N)Cc2ccc(Cl)cc2)cc1	8.82%
O=[N+]([O-])c1ccc(COc2cccc(CNc3ccc(Br)cc3)c2)cc1	-2.42%
Cc1ccc(N(C(=O)Cn2nnc(-c3ccc(F)cc3)n2)C(CC(C)C)C(=O)NCC2CCCO2)cc1 (centres unmarked)	5.31%
COc1cccc2cc(-c3cn4ccc(C)cc4n3)c(=O)oc12	12.1%
